Measurements as given in PMC4336329 (PLoS ONE, 2015).
Hit rate of the full screen: of about 310,000 compounds, about 2,200 (0.71%) showed an effect of 50% or more. The effect is printed as a negative number. The list shows a part of the results.

These compounds were tested against human ether-à-go-go-related gene (hERG) potassium channel (human, UniProt Q12809) (assay: primary screen, population patch clamp on CHO cells stably expressing hERG).
Sequence of human ether-à-go-go-related gene (hERG) potassium channel (Q12809 whole entry, looked up): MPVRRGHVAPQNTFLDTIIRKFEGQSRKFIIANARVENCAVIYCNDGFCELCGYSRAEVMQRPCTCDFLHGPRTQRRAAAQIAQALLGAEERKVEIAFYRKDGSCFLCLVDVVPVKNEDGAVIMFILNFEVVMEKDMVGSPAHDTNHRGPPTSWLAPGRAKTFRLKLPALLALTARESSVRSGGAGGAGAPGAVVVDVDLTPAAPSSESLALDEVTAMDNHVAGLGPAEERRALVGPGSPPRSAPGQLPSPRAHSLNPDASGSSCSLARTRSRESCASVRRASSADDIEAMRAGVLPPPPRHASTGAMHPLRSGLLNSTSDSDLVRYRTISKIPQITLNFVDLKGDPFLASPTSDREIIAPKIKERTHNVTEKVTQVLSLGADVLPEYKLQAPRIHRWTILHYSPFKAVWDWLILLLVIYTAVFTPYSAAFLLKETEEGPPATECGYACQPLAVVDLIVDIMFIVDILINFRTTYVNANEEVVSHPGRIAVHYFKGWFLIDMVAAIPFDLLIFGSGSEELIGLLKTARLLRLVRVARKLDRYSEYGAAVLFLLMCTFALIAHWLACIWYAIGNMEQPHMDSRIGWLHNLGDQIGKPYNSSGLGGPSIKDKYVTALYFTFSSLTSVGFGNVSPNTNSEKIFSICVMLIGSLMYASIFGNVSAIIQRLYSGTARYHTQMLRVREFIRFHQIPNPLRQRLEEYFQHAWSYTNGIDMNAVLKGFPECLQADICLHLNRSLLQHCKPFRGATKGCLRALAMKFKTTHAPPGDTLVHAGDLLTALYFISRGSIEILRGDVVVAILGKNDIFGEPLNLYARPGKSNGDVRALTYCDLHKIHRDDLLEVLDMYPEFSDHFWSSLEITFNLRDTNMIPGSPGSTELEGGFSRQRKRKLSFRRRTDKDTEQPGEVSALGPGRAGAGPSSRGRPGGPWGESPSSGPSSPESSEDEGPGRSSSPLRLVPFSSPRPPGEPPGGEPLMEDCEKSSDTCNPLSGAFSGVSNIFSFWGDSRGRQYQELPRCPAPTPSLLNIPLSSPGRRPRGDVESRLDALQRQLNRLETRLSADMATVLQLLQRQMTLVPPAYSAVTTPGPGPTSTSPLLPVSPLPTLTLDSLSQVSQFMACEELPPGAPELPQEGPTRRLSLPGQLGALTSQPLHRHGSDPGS

| SMILES | hERG current change (%, negative = inhibition) at 1uM [%] |
| --- | --- |
| CCC(C(=O)NCCc1ccccc1OC)n1nc(C)c2c(C)n(-c3ccccc3)nc2c1=O (centres unmarked) | -6.39 |
| COc1cc2c(cc1OC)-c1cc(OCCN3CCOCC3)nc(=O)n1CC2 | -10.5 |
| N#CC1=C(N)OC2=C(C(=O)CCC2)C1c1cccs1 (centres unmarked) | 12.5 |
| COc1ccc(C)cc1NCc1cc(=O)oc2cc(-c3ccccc3)c(O)cc12 | 5.03 |
| C=CCn1c(SCC(=O)NCc2ccco2)nc2ccccc2c1=O | -14.4 |
| COc1cccc(-c2c(C(=O)N/N=C/c3ccncc3)nnn2-c2nonc2N)c1 | 0.9 |
| Cc1c(N2C(=O)C(C)SC23C(=O)Nc2ccccc23)c(=O)n(-c2ccccc2)n1C (centres unmarked) | 12.8 |
| O=C(NCCc1ccccc1)c1c(O)c2cccc3c2n(c1=O)CC3 | -0.679 |
| CC(=O)Nc1ccc(NS(=O)(=O)c2ccc3c(c2)n(C)c(=O)n3C)cc1 | 12 |
| CCOC(=O)c1ccc(NC(=S)NCc2ccco2)cc1 | 6.12 |
| CCCCCCSc1cccc(-c2nc3cc(C)ccn3c2NCc2ccccc2)c1.O=C(O)C(F)(F)F | 9 |
| Cc1cc(C)cc(NC(=O)CCc2nc3ccccc3[nH]2)c1 | 7.3 |
| CCOC(=O)C1CCN(Cc2cccc(OC)c2)CC1 | 12.4 |
| COc1ccc(C2NC(=S)NC(C)=C2C(=O)N2CCOCC2)cc1 (centres unmarked) | 10.5 |
| C=CCn1c(SCC(=O)NCC2CCCO2)nc2c([nH]c3ccccc32)c1=O (centres unmarked) | 10.2 |
| Cl.Cn1c(=N)n(CC(O)c2cccs2)c2ccccc21 (centres unmarked) | -7.58 |
| CC(=O)Oc1c(C)c2c3c(c1OC(C)=O)[C@@H](C)CC[C@@H]3[C@@H](C)C[C@H]2C=C(C)C | 11.1 |
| CC(C)c1ccc(/C=C/C(=O)NC(=S)Nc2ccc(CN3CCOCC3)cc2)cc1 | 17.5 |
| Cc1cccc(Cn2c(O)c(N=NC(=S)Nc3ccccc3F)c3ccccc32)c1 | 8.64 |
| Cn1nnc2c[n+](CC(=O)c3ccc4ccccc4c3)cc(Br)c21.[Br-] | -3.01 |
| CSc1nc(C)c(CCOC(=O)c2ccccc2)c(=O)[nH]1 | 6.43 |
| COCCn1c(=NC(=O)c2sc3ccccc3c2Cl)sc2cc(S(N)(=O)=O)ccc21 | 5.41 |
| CCN(CC(=O)Nc1ccc(OC)cc1)C(=O)c1ccccc1Sc1ccccc1C#N | 15.1 |

| SMILES | hERG current change (%, negative = inhibition) at 1uM [%] |
| --- | --- |
| Cc1cc(C)n(CCNC(=O)c2cc(COc3ccc(F)cc3Cl)on2)n1 | 3.24 |
| O=C(NC1CCCCCC1)c1cccs1 | 6.48 |
| C/C(CC(=O)NCCCN1CCOCC1)=N\NC(=O)COc1ccc(Cl)cc1 | 10.2 |
| CCSc1ncc(/C=N/Nc2ccccc2)n1C | -3.84 |
| Cc1cc(C)c2nc(N3CCC(C(=O)N4CCCC4)CC3)sc2c1 | -15.1 |
| CCc1cccc(NC(=O)CN(C)C2=NS(=O)(=O)c3ccccc32)c1 | 14 |
| O=S(=O)(C=C(c1ccccc1)c1ccccc1)c1ccccc1 | 1.9 |
| COc1cccc(Nc2nnc(SCC(=O)N3CCOCC3)s2)c1 | -3.22 |
| COC(=O)c1cn(NC(=O)Cc2cccc(OC)c2)c(=O)c2ccccc12 | 8.2 |
| COc1cc(/C=N/N=C(/N)c2nonc2N)cc(Br)c1OCc1ccccc1C | -4.22 |
| COc1cccc(OCC(=O)NNC(=O)C(=O)Nc2cccc(C)c2)c1 | 7.02 |
| CCOC(=O)c1cc([N+](=O)[O-])c([N+](=O)[O-])cc1NC(C)=O | 16.6 |
| O=C(c1cccc(S(=O)(=O)N2CCOCC2)c1)N1CCCc2ccccc21 | 11.9 |
| CCC1CCCCN1C(=S)NCc1ccccc1 (centres unmarked) | 2.42 |
| Cc1ccnc(NC(=O)CCC2CCCCC2)c1 | 3.7 |
| CC1Cc2ccccc2N1S(=O)(=O)c1cnc[nH]1 (centres unmarked) | 13.2 |
| O=C(COc1ccc2c3c(c(=O)oc2c1)CCC3)Nc1ccc(CN2CCOCC2)cc1 | 10.7 |
| COC(=O)c1cc(NC(=S)NCc2ccc(Cl)cc2)cc(C(=O)OC)c1 | 4.71 |
| CCc1ccc(Nc2ncc3c(n2)CC(C)CC3=O)cc1 (centres unmarked) | 8.87 |
| C/C(=N\Nc1cccc(Cl)c1)c1ccncc1 | 0.861 |
| Cc1nn(-c2ccccc2)c(N2CCCC2)c1/C=N/NC(=O)c1cc(-c2cccs2)nc2ccccc12 | 8.03 |
| O=C(NCCCn1ccnc1)c1nc(Cn2cc([N+](=O)[O-])cn2)no1 | 11.1 |
| NC(=O)Nn1c(CCC(=O)O)ccc1-c1ccc(F)cc1 | 16.8 |

| SMILES | hERG current change (%, negative = inhibition) at 1uM [%] |
| --- | --- |
| CC(NC(=O)OCc1ccccc1)c1ccccc1 (centres unmarked) | 5.36 |
| Cc1nn(-c2ccccc2)cc1C(=S)Nc1ccccc1 | 0.119 |
| C=CCSC1=N/C(=C\c2ccsc2)C(=O)S1 | -0.756 |
| CCN(C(=O)CN1C(=O)NC(c2ccccc2)(c2ccccc2)C1=O)c1ccccc1 | 10 |
| COCCNC(=O)c1c(N)n(Cc2ccco2)c2nc3ccccc3nc12 | 9.18 |
| CC(=O)c1c(C)oc(C)c1CSCc1ccc(C(=O)O)o1 | 4.74 |
| Cc1ccc(NC(=O)C2C(c3ccccc3)C2(Cl)Cl)c(C)c1 (centres unmarked) | 2.95 |
| O=C(CSc1nnc(CNc2ccc(F)cc2)o1)N1c2ccccc2Sc2ccccc21 | 12.7 |
| O=c1c2cc(N3CCOCC3)ccc2[nH]c(=S)n1CCCN1CCCCC1 | -5.49 |
| COc1cccc(N2CCN(C(=O)C3CCN(S(=O)(=O)c4ccc5c(c4)oc(=O)n5C)CC3)CC2)c1 | 10.5 |
| Cc1ccc(-c2cc3c(N=O)c4ccccc4c-3n[nH]2)cc1 | 16.6 |
| Cc1ccc(S(=O)(=O)N2CCCCC2)cc1NC(=O)Cn1cc(C(F)(F)F)ccc1=O | 8.63 |
| CC(=O)Nc1ccc(S(=O)(=O)Nc2cccc(NC(=O)c3ccco3)c2)cc1 | 21.6 |
| Cc1[nH]n(-c2ccccc2)c(=O)c1N=Nc1cccc(C(=O)O)c1 | 14.2 |
| COc1cccc(-n2ccnc2SCC(=O)N2CCc3ccccc32)c1 | 6.4 |
| CSCCC(NC(=O)c1ccccc1)C(=O)Nc1ccc(C)cc1 (centres unmarked) | 13 |
| CN1CCN(CCCNC(=O)CCc2nnc3n(Cc4ccccc4Cl)c(=O)c4ccccc4n23)CC1 | 15.6 |
| Fc1cccc(Cl)c1-c1nnc2ccc(N3CCOCC3)nn12 | 0.573 |
| O=C(CN1C(=O)c2ccccc2C1=O)N1CCOCC1 | -0.632 |
| CC(=C\C(=O)O)/C(=C/c1ccccc1)C(=O)O | 14.1 |
| Cc1nn(C)c(C)c1NS(=O)(=O)c1ccc(OC(F)(F)F)cc1 | 13.8 |
| O=C1CN(C(=O)COC(=O)C23CC4CC(CC(O)(C4)C2)C3)c2ccccc2N1 | 9.31 |
| C/C(=N\Nc1cccc2ccccc12)c1c(O)n(Cc2ccccc2)c(=O)[nH]c1=O | 20.8 |

| SMILES | hERG current change (%, negative = inhibition) at 1uM [%] |
| --- | --- |
| Cc1ccc(OCC(O)CNS(=O)(=O)c2ccccc2C(=O)O)cc1 (centres unmarked) | 11.7 |
| O=C(NC1CCCCC1)c1ccc(-n2cnnn2)cc1 | 8.39 |
| O=C(COC(=O)CCS(=O)(=O)c1ccccc1)Nc1ccccc1 | 0.18 |
| O=C(c1ccco1)n1nc(-c2ccccc2)nc1SCc1ccccc1 | 7.86 |
| O=C(CN1CCCCC1)NCC(=O)Nc1ccc(F)c(F)c1F | 11.5 |
| O=C(CN1CCN(C/C=C/c2ccccc2)CC1)NC(=O)NC1CCCCC1 | -69.7 |
| COc1ccc(C)cc1S(=O)(=O)N(CC(=O)O)c1ccccc1 | 8.53 |
| Cl.O=C(CN1CCOCC1)n1c2c(c3ccccc31)CCCC2 | 3.34 |
| CCc1cc(C(=O)NCC(c2ccco2)N2CCCCC2)sc1C (centres unmarked) | 5.44 |
| Cc1cc(=O)c2ccccc2[nH]1 | 3.6 |
| CCC(C)[C@H](NC(=O)N1CCCCCC1)C(=O)OC (some centres unmarked) | 6.13 |
| C=C1CCC2[C@](C)(CO)[C@H](O)CC[C@@]2(C)[C@@H]1C/C=C1\C(=O)OC[C@H]1O (some centres unmarked) | 14.1 |
| CN(C(=O)CN1C(=O)NC2(CCc3ccccc32)C1=O)C1CCS(=O)(=O)C1 (centres unmarked) | 14.9 |
| CCOC(=O)C(C)n1cnc2c(nnn2-c2cccc(OC)c2)c1=O (centres unmarked) | 16.7 |
| COc1ccc(NC(=O)C2CCCN2S(=O)(=O)c2cccc3cccnc23)cc1OC (centres unmarked) | 13.8 |
| O=C(O)C(=O)O.c1ccc(CCNc2nc(-c3ccccn3)cs2)cc1 | 8.72 |
| Cc1ccc2c(c1C)OC(=O)CC2(C)C | 16.6 |
| COc1ccc(N2CCN(C3CC(=O)N(c4ccc5c(c4)OCCO5)C3=O)CC2)cc1 (centres unmarked) | -5.46 |
| COc1ccc(CNC(=O)Cn2ncn3cccc3c2=O)cc1 | 3.74 |
| CC(C)NC(=O)Cn1c(SCC(=O)N2CCCCCC2)nc2ccccc21 | 7.07 |
